Results taken from paper PMC4336329 (PLoS ONE, 2015).
In all, about 310,000 compounds went through this assay and about 2,200 (0.71%) showed an effect of 50% or more. The effect is printed as a negative number. Some of the results follow.

What follows are compounds tested against human ether-à-go-go-related gene (hERG) potassium channel (human, UniProt Q12809) (assay: primary screen, population patch clamp on CHO cells stably expressing hERG).
human ether-à-go-go-related gene (hERG) potassium channel, sequence (Q12809 whole entry, looked up): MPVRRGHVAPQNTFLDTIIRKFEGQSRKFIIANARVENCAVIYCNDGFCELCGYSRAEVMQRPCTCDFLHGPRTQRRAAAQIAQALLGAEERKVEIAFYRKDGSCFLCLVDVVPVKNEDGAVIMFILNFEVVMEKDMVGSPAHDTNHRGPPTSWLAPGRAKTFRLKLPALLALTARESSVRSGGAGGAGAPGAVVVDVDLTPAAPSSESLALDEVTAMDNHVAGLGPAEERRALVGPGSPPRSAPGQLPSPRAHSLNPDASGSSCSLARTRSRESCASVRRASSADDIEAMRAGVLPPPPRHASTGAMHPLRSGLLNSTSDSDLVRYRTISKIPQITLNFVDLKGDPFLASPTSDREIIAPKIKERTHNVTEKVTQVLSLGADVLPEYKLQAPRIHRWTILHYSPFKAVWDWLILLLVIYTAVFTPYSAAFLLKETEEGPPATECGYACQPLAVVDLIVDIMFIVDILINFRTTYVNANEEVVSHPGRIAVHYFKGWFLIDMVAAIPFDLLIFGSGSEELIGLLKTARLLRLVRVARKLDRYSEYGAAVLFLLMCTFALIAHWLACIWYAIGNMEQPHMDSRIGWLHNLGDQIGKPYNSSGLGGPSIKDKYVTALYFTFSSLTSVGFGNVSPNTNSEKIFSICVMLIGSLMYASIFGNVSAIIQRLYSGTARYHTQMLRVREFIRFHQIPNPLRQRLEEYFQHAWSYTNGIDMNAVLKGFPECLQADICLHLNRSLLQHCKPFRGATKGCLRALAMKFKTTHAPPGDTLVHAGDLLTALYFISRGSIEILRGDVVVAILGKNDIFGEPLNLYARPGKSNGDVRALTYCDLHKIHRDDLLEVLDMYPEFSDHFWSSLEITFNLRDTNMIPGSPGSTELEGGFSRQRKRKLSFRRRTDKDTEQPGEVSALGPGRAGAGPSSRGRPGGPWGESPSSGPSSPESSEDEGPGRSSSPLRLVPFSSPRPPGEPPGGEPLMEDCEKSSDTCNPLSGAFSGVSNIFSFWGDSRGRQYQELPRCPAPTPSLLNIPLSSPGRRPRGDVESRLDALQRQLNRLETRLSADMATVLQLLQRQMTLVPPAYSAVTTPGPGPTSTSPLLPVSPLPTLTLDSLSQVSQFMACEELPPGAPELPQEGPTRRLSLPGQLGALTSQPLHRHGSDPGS

Structure (SMILES) | hERG current change (%, negative = inhibition) at 1uM [%]
O=C(Cc1ccccc1)NCc1ccc(F)cc1 | 7.57
CCCCN(C(=O)COc1ccc(NC(C)=O)cc1)C1CCS(=O)(=O)C1 (centres unmarked) | 9.63
COCC(=O)n1nc(NCc2ccc(OC)cc2)nc1NCc1ccc(OC)cc1 | 2.97
Cc1cc(C)n2nc(C)c(Br)c2n1 | 20.3
COCCCn1c(=S)[nH]c2c(sc3ccccc32)c1=O | 14.1
COCC1CCN(C(=O)c2cc(COc3cc(C)c(Cl)c(C)c3)on2)C1 (centres unmarked) | 11.8
CCNS(=O)(=O)c1cc(OC)c(Cl)cc1OC | 4.57
Cc1ccc(NC(=O)CCC(=O)N/N=C/c2cccs2)cc1C | -1.15
CCCCNC(=O)COC(=O)c1ccc(Cl)c(S(=O)(=O)N2CCCC2)c1 | 0.201
CCn1c(C)cc(/C=C2/SC(=S)NC2=O)c1C | 11
CC(=O)c1ccc(N2CCN(C(=O)c3cc(-c4cccnc4)nc4ccc(Br)cc34)CC2)cc1 | 3.57
COc1ccccc1C(CNC(=O)c1oc2ccccc2c1C)N1CCCC1 (centres unmarked) | -2.47
Cc1ccc(S(=O)(=O)CCC(=O)OCC(=O)c2cc(C)n(C)c2C)cc1 | 16.4
COc1ccc(C(=O)NNC(=O)Cn2nnc(-c3ccc(OC)c(OC)c3)n2)cc1 | 4.77
CCCC(C)NC(=O)Cc1ccccc1[N+](=O)[O-] (centres unmarked) | 6.28
CSc1nc(SCC(=O)O)c2c3c(sc2n1)COC(C)(C)C3 | 3.5
O=C1C(Cl)=C(N2CCCCC2)C(=O)N1Cc1ccccc1 | 10.4
Cc1ccc(C(=O)N(CCN(C)C)CC2CCCN(Cc3ccccc3F)C2)cc1C (centres unmarked) | 15.3
Cc1cc(C)c(S(=O)(=O)NNC(=O)C2CCN(Cc3ccccc3)CC2)c(C)c1 | 9.25
CCCC(=O)Nc1ccc(C#Cc2ccccc2)cc1 | 3.75
COCCNc1oc(-c2cccs2)nc1S(=O)(=O)c1ccc(C)cc1 | -4.5
COC(=O)C1=C(c2cccc(OC)c2OC)C[C@@H]2CC[C@H]1N2C(=O)NCc1ccco1 | 18.5

Structure (SMILES) | hERG current change (%, negative = inhibition) at 1uM [%]
O=C(CSc1nc(C(F)(F)F)cc(=O)[nH]1)Nc1ccc2c(c1)OCCO2 | -6.12
COC(=O)c1sc(S(=O)(=O)N2CCCCC2C)c(C(=O)OC)c1C (centres unmarked) | 6.86
CCn1c(SCC(=O)Nc2nc(C)c(C)s2)nnc1-c1ccco1 | -11.2
CC(C)(C)NC(=O)NC(=O)COC(=O)CNS(=O)(=O)/C=C/c1ccccc1 | 11.2
O=C(O)C1CSCN1S(=O)(=O)c1cccc2nsnc12 (centres unmarked) | 8.05
COc1ccc(S(=O)(=O)Nc2cc3c(cc2C(C)=O)OCO3)cc1 | 12.1
CC(O)CNCCNCc1cccs1.Cl (centres unmarked) | 12.5
CCOc1ccc(/C=C/C(=O)Nc2ccc(N3CCOCC3)cc2)cc1 | 12.7
CSc1ncc(Cl)c(C(=O)Nc2ccccc2Br)n1 | 12.4
Cc1ccc(-c2cc(C(=O)N/N=C/C=C/c3ccco3)c3ccccc3n2)cc1C | 11
O=C(Nc1ccc(Br)cn1)c1cccc(C(=O)Nc2ccc(Br)cn2)c1 | 8.39
O=C(Nc1ccccc1)Nc1ccccc1C(=O)NCCCN1CCOCC1 | 10.4
COc1cc(SC)ccc1C(=O)Nc1cccc(S(=O)(=O)NC2=NCCCCC2)c1 | 6.98
CC(C)CN(CC(C)C)C(=O)CC(=O)NC(=O)c1ccc(Cl)cc1 | 2.46
CC1CCc2sc(C(=O)OCC(=O)NCc3ccc(F)cc3)cc2C1 (centres unmarked) | 8.4
CCN(CC(=O)NCCCN1CCOCC1)S(=O)(=O)c1cc(Cl)ccc1Cl | 9
COc1ccc(-c2ccc(SCC(=O)NC3CCCCC3)nn2)cc1 | 9.24
Cn1c(=O)c2cc(S(=O)(=O)NCCC(=O)NCC3CCCO3)ccc2n(C)c1=O (centres unmarked) | 9.62
CCN(CC)S(=O)(=O)c1ccc(N2CCCC2)c(NC(=O)C2=COCCO2)c1 | -3.65
COc1ccc(N2CCN(C(CNC(=O)c3cccs3)c3ccco3)CC2)cc1 (centres unmarked) | 17.1
O=C(Cn1cnc2ccccc2c1=O)N1CCN(c2ccccc2)CC1 | 3.53
COc1ccc(CN2CCCN(C)CC2)c(OC)c1C | 14.5
